Measurements: patent US20250205375A1, “HER3 RADIOIMMUNOTHERAPY FOR THE TREATMENT OF SOLID CANCERS” (ACTINIUM PHARMACEUTICALS, INC., priority 2023, published 2025)

Assays:
[1] = tested on: ACHN human renal cancer cells xenograft; experiment: ACHN human renal cell carcinoma xenograft in Balb/c nude mice, tumor growth; assay type: in vivo, mouse; conditions: 0.4 μCi on day 1 and 0.2 μCi on day 21, intravenously
Protocol: In more detail, the experiment was performed as follows. Female Balb/c nude mice were subcutaneously injected with 5×10^6 ACHN human renal cancer cells (ATCC; CRL-1611). […] Drug treatments were administered orally for vehicle (PBS) and tivozanib or intravenously for unlabeled/unconjugated HER3 monoclonal antibody (HER3), HER3-ARC (Actinium-225 labeled HER3 antibody) and HER3-ADC (patritumab deruxtecan). Single agents or combinations were dosed as follows: vehicle (daily for 14 days), unlabeled/unconjugated HER3 antibody (100 μg on day 1), HER3-ADC (3 mg/kg on day 1 and 21), HER3-ARC (0.4 μCi on day 1 and 0.2 μCi on day 21), tivozanib (0.3 mg/kg daily for 14 days), tivozanib (0.3 mg/kg daily for 14 days) with HER3-ARC (0.4 μCi on day 16), and HER3-ARC (0.4 μCi on day 1) with tivozanib (0.3 mg/kg starting day 3, daily for 14 days). […] HER3-ARC was always administered in a total protein dose of 50 μg irrespective of the radiation dose. Tumor volumes were measured twice weekly by caliper and body weights were monitored. The mean tumor volume for each group was analyzed and graphed using GraphPad Prism software and statistical analysis is performed with Tukey's multiple comparisons test.

[2] = tested on: DU145 cell line xenograft; experiment: Human DU145 cell line xenograft prostate cancer mouse model, tumor growth; assay type: in vivo
Protocol: FIG. 15 is a graph showing the effects on tumor growth in a human DU145 cell line xenograft prostate cancer mouse model for ^225Ac-labeled HER3 ARC, singly, doubly or triply dosed, and controls including vehicle only, HER3 ADC (patritumab […] HER3-DXd), non-specific IgG ADC (IgG deruxtecan), and ^225Ac-labeled non-specific IgG (in a single dose or in two doses). […] IgG deruxtecan), and naked (cold) HER3 mAb control (50 μg). Except where otherwise specified, all agents/controls were dosed on day 1.

[3] = tested on: 22RV1 cell line xenograft; experiment: Human 22RV1 prostate cancer cell line xenograft mouse model, tumor growth; assay type: in vivo
Source text: FIG. 16 is a graph showing the effects on tumor growth in a human 22RV1 prostate cancer cell line xenograft mouse model for ^225Ac-labeled HER3 antibody, singly, doubly or triply dosed, versus a HER3 ADC and other controls. The doses and dose schedule of the various agents and controls are the same here as described above for the experiment of FIG. 15.

[4] = tested on: OVCAR5 cell line xenograft; experiment: Human OVCAR5 cell line xenograft ovarian cancer mouse model, tumor growth; assay type: in vivo; conditions: single dose of 0.2 μCi or 0.4 μCi on day 1
Protocol: (§1) FIG. 17A is a graph showing the effects on tumor growth in a human OVCAR5 cell line xenograft ovarian cancer mouse model for ^225Ac-labeled HER3 antibody, in a single dose of 0.2 μCi or 0.4 μCi, versus standard of care Bevacizumab (10 mg/kg), ^225Ac-labeled non-specific IgG control (0.4 μCi), and naked (cold) HER3 mAb control (10 μg). All agents/controls were dosed on day 1.
as §1, with “17B” for “17A”, “^177Lu-labeled” for “^225Ac-labeled”, “200” for “0.2”, “400” for “0.4”, “(400” for “(0.4”

B1: HER3-ARC (conjugate)
heavy: QVQLVESGGGLVKPGGSLRLSCAASGFTFSDYAMSWIRQAPGKGLEWVSTISDGGTYTYYPDSVKGRFTISRDNAKNSLYLQMNSLRAEDTAVYYCAREWGDYDGFDYWGQGTLVTVSS[not shown - human IgG1 constant region]
light: DIQMTQSPSSLSASVGDRVTITCRASQEISGYLSWYQQKPGKAPKRLIYAASTLDSGVPSRFSGSGSGTEFTLTISSLQPEDFATYYCLQYDSYPYTFGQGTKLEIKRTVAAPSVFIFPPSDEQLKSGTASVVCLLNNFYPREAKVQWKVDNALQSGNSQESVTEQDSKDSTYSLSSTLTLSKADYEKHKVYACEVTHQGLSSPVTKSFNRGEC
In the case of B1, the “tumor growth (mean tumor volume)” value [1] is reported as “greatest suppression of tumor growth among all arms”, the tumor growth ([2]; dosed twice: 0.4 μCi on day 1 followed by 0.2 μCi on day 15) is reported as “comparably profound inhibition of tumor growth” and the tumor growth ([2]; single dose 0.4 μCi on day 1) is reported as “performing similarly but not as well by later time points”. For the same molecule, the tumor growth ([2]; triply dosed: 0.2 μCi on days 1, 7 and 16) was “comparably profound inhibition of tumor growth”, the tumor growth ([3]; 0.2 μCi on each of days 1, 7 and 15) was “very substantially inhibited tumor growth versus the HER3-ADC and other control arms but not to the extent as the singly and doubly dosed” and the tumor growth ([3]; 0.4 μCi on day 1 and 0.2 μCi on day 15) was “comparably profound inhibition of tumor growth”. For the same molecule, the tumor growth ([3]; dosed singly at 4 μCi on day 1) was “comparably profound inhibition of tumor growth” and the “antitumor efficacy (tumor growth)” value [4] was “potent antitumor efficacy”.
